# Measured values published in PMC4336329 (PLoS ONE, 2015).
# The whole screen tested about 310,000 compounds, of which about 2,200 (0.71%) showed an effect of 50% or more. The effect is printed as a negative number. The list shows a part of the results.
# Biological target: human ether-à-go-go-related gene (hERG) potassium channel (human, UniProt Q12809)
# Test: primary screen, population patch clamp on CHO cells stably expressing hERG
# Sequence of human ether-à-go-go-related gene (hERG) potassium channel (Q12809 whole entry, looked up): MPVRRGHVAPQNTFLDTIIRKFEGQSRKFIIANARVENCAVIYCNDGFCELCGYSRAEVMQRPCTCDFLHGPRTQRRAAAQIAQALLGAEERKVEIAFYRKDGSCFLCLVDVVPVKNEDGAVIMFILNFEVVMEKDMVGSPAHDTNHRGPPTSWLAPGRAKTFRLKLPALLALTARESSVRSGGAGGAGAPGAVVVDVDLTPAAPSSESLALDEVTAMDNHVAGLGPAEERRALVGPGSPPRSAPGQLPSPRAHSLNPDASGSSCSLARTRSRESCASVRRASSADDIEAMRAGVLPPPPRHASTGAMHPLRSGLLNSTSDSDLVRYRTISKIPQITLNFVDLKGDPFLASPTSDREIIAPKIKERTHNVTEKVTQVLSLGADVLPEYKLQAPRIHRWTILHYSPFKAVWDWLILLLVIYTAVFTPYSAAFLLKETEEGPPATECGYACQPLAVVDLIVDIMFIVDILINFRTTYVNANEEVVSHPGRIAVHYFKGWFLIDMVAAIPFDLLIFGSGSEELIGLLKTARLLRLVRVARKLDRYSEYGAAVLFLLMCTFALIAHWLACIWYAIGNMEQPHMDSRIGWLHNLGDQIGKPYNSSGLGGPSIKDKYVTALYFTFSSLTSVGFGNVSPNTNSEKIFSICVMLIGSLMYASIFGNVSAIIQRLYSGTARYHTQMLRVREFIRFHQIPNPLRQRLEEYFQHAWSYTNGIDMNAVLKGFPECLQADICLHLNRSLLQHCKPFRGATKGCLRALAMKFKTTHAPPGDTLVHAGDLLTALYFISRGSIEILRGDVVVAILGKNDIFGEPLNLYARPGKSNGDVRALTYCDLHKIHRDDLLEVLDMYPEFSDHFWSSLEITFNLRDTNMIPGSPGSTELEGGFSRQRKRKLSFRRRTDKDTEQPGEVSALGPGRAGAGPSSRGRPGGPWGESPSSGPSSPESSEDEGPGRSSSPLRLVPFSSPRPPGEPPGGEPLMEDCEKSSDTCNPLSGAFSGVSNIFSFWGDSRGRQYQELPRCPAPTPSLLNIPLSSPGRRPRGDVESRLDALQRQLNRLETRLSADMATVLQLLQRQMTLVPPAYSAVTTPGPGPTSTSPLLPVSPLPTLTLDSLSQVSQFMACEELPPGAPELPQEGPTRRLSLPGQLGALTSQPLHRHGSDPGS
row,Compound,"hERG current change (%, negative = inhibition) at 1uM"
1,CCN(Cc1ccccc1)C(=O)Cn1c(=O)n(CC(=O)N2CCCCC2)c(=O)c2sccc21,13.9%
2,Fc1cc2[nH]cnc2cc1Cl,7.87%
3,N#CC1=C(N)Nc2ncnn2C1c1ccccc1 (centres unmarked),14.6%
4,O=C(Nc1cc(Cl)ccc1N1CCOCC1)c1cnccn1,9.8%
5,Cc1ccc(Br)cc1S(=O)(=O)N1CCN(c2ccccc2)CC1,4.81%
6,Cc1ccccc1CC(=O)NC1CCCc2ccccc21 (centres unmarked),18.5%
7,CN(C)c1ccc(/C=N/NC(=O)c2ccnn2C)cc1,6.56%
8,CCN(C1CCS(=O)(=O)C1)S(=O)(=O)c1ccc(OC)c(OC)c1 (centres unmarked),-1.14%
9,Cc1cnc(NC(=O)c2cc3c(C)nn(-c4ccccc4)c3s2)s1,10.4%
10,Fc1ccc(CSc2nnc3ccccn23)c(Cl)c1,13.1%
11,CCn1nc(C(=O)N[C@@H](CCSC)c2nc3ccccc3[nH]2)c2ccccc2c1=O,-4.1%
12,COCCn1c(SCC(=O)Nc2ccc(OC)c(S(N)(=O)=O)c2)nc2ccccc21,12%
13,CN1CCN(C(=S)c2ccc(OCC(=O)Nc3cccc(C(F)(F)F)c3)cc2)CC1,14.5%
14,Cc1cc2c(C)nc(N/N=C/c3ccc([N+](=O)[O-])cc3)nc2o1,-2.5%
15,Cc1ccccc1-n1cc(CNCc2c(C(=O)N(C)C)nc3ccc(Cl)cn23)cn1,4.77%
16,CN(Cc1nccn1C)C(=O)C1CCC(=O)N(Cc2cccc(C(F)(F)F)c2)C1 (centres unmarked),8.08%
17,C=CCNC(=O)/C(=C\c1ccc(OC)cc1)NC(=O)c1ccc([N+](=O)[O-])cc1,-64.7%
18,CCOc1ccccc1-n1nnnc1SCC(=O)Nc1cc(C)on1,-5.24%
19,CN(CC(=O)Nc1c(Cl)cccc1Cl)C(=O)CCNS(=O)(=O)c1ccccc1C(F)(F)F,12.1%
20,CC1(C2CC2)NC(=O)N(CC(=O)Nc2cc(S(=O)(=O)N3CCCCC3)ccc2Cl)C1=O (centres unmarked),7.33%
21,COc1ccc(NC(=O)COc2coc(CN3c4ccccc4CC3C)cc2=O)cc1 (centres unmarked),3.07%
22,COc1ccc(CCNC(=O)COC(=O)c2cc(S(=O)(=O)NCc3ccccc3)ccc2O)cc1OC,-1.16%

row,Compound,"hERG current change (%, negative = inhibition) at 1uM"
1,O=C(NCc1nnc(SCc2ccccc2)n1-c1ccccc1)C12CC3CC(CC(C3)C1)C2,14.1%
2,CC(C)c1ccc(C(=O)CSc2ncn[nH]2)cc1,10.6%
3,Cc1cccc(Cn2cc(SCC(=O)Nc3nccs3)c3ccccc32)c1,8.48%
4,C/C(Cn1nnc2ccccc21)=N/OC(=O)c1c(F)cccc1F,13.4%
5,CCOc1c2ccc(C(=O)NCc3cc(C(F)(F)F)cc(C(F)(F)F)c3)cc2nn1C,15.2%
6,CN(CC1CCOCC1)C(=O)CC1C(=O)NCCN1CC(c1ccccc1)c1ccccc1 (centres unmarked),8.73%
7,CCc1ccc(NC(=O)CSc2nnc(-c3cnccn3)n2C)cc1,12.7%
8,Cc1ncc([N+](=O)[O-])n1CC(=O)NC1CCCCCC1,1.93%
9,O=S1(=O)CCC(=Nc2ccc(Cl)cc2)c2ccsc21,8.83%
10,O=C(O)COc1ccc(S(=O)(=O)N2CCCC2)cc1,16.2%
11,Cc1cc(C)nc(SCCn2c(N3CCCCC3)nc3c2c(=O)n(C)c(=O)n3C)n1,15.6%
12,COc1cc(C(=O)NNC(=O)c2ccoc2C)cc(OC)c1OC,14.6%
13,Cc1cc2cc(CNC(=S)Nc3ccc(OC(F)F)cc3)ccc2[nH]1,13.1%
14,CCOC(=O)c1ccccc1NC(=O)c1nc2nccc(C)n2n1,-4.25%
15,COc1cccc(NC(=O)COC(=O)c2ccc(C)c(S(=O)(=O)N3CCCCC3)c2)c1,2.86%
16,O=C(Oc1ccc(Br)cc1C(=O)/C=C/c1ccccc1F)c1ccco1,12.6%
17,Cc1ccc(O)c(-c2[nH]ncc2C(=O)c2ccc(Cl)cc2)c1,14.5%
18,COc1ccc(CC(=O)N(C)Cc2cccc(F)c2)cc1S(=O)(=O)N1CCOCC1,9.56%
19,CCCCC(=O)N1CC(=O)Nc2ccc(F)cc2C1c1ccc(F)cc1 (centres unmarked),13.7%
20,COc1ccc(-c2cc(N3C(=O)Nc4ccccc4N3O)n[nH]2)cc1OC,4.3%
21,Cc1ccc(CNC(=S)N2CCOCC2)cc1,16.5%
22,CCOc1[nH]n(-c2ccccc2)c(=O)c1C=Nc1ccc(OC)cc1,11.2%
